According to PMC4336329 (PLoS ONE, 2015):
About 2,200 (0.71%) of roughly 310,000 compounds showed an effect of 50% or more. Effects have a minus sign here. The list shows a part of the results.

molecular target: human ether-à-go-go-related gene (hERG) potassium channel (human, UniProt Q12809); assay: primary screen, population patch clamp on CHO cells stably expressing hERG
Sequence (Q12809 whole entry, looked up): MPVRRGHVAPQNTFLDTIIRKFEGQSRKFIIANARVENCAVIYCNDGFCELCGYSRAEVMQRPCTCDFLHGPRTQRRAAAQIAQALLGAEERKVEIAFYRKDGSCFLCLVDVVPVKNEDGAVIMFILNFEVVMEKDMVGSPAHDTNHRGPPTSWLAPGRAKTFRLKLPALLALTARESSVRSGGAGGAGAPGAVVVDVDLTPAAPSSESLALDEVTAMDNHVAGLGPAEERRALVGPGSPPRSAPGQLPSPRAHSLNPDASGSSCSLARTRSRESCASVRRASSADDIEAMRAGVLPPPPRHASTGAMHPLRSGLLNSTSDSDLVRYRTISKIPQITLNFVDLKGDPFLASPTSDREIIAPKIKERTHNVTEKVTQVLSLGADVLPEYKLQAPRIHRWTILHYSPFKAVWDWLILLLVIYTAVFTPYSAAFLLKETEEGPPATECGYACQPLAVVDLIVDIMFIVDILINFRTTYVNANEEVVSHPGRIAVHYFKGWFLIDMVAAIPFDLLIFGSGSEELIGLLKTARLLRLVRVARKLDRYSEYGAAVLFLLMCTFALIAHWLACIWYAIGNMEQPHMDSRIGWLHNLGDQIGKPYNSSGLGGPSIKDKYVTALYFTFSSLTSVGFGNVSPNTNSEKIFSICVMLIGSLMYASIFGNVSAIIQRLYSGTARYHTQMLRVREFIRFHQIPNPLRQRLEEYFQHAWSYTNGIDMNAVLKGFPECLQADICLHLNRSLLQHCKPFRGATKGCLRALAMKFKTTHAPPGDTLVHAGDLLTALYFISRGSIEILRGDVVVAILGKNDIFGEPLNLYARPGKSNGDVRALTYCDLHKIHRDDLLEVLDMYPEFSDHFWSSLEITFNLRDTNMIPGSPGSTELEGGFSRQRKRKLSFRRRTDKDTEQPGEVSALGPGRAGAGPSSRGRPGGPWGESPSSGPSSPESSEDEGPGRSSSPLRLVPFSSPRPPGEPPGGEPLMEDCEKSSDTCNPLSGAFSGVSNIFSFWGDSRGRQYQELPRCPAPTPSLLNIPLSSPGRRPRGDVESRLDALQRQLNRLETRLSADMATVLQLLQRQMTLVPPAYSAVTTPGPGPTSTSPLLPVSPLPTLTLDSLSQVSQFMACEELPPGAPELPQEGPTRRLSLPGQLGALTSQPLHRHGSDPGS

SMILES	hERG current change (%, negative = inhibition) at 1uM [%]
O=C(CCNC(=O)c1ccc(Br)cc1)Nc1ncccc1O	20.8
CCOC(=O)Cc1csc(NC(=O)CSc2nnnn2-c2ccc(CC)cc2)n1	0.123
Cc1cccc(-n2ncc3c2CCCC3NC(=O)CCN2CCCCO2)c1C (stereo not drawn)	13.7
NC(=O)C1(N2CCCCC2)CCN(C(=O)CSc2nc(C(F)(F)F)cc(=O)[nH]2)CC1	3.56
COc1ccc(CNC(=O)CCCn2c(SCC#N)nc3cc4c(cc3c2=O)OCO4)cc1	8.71
Cc1cccc(C(=O)OCC(=O)NNC(=O)c2cccs2)c1O	10.9
Cc1oc(C(C)(C)C)c(CN2CCOCC2)c1C(=O)O.Cl	21.9
Cc1ccc(-c2nnc(SCC#N)n2N)cc1	18.3
CCOC(=O)C1=C(C)Nc2ccccc2N=C1N	7.46
Cc1ccc(S(=O)(=O)Nc2ccsc2C#N)cc1	13.1
COc1c(Cl)cc(C(=O)Nc2ccc(Cl)cn2)cc1Cl	10.3
CCCn1c(SCC(=O)NCc2ccco2)nnc1-c1ccncc1	15
CSCC[C@H](NS(=O)(=O)c1ccc(C(C)=O)cc1)c1nnc2ccccn12	9.97
COc1ccc(/C=N/NC(=S)Nc2c(C)n(C)n(-c3ccccc3)c2=O)cc1OC	14.5
CSCCOC(=O)C1=C(C)Nc2ccc(C)cc2S1	11.8
COc1cccc(N(C(=O)c2snc(C(N)=O)c2N)C(C(=O)NCc2ccccc2)c2ccc(O)cc2)c1 (stereo not drawn)	5.25
COc1ccc2c(c1)CC/C(=C/c1cc(OC)c(OC)c(OC)c1)C2=O	4.26
CN(CCCNC(=O)CN1C(=O)CC(C)(C)S(=O)(=O)c2ccccc21)C1CCCCC1	11.4
CCC(C)/C=C(C)/C=C/C1=CC2=C(Cl)C(=O)C(C)(OC(C)=O)C(=O)C2=CO1 (stereo not drawn)	4.76
CCOc1ccc(C(=O)CCC(=O)N2CCC(C(=O)OC)CC2)cc1	10.1
COc1cc(/C=N/n2c(-c3cc(C)[nH]n3)n[nH]c2=S)cc(OC)c1OC	11.8
CC(=O)NC1CCCN(O)C(=O)/C=C(\C)CCOC(=O)C(NC(C)=O)CCCN(O)C(=O)/C=C(\C)CCOC(=O)C(NC(C)=O)CCCN(O)C(=O)/C=C(\C)CCOC1=O (stereo not drawn)	-9.21

SMILES	hERG current change (%, negative = inhibition) at 1uM [%]
O=C1NC(=S)N/C1=C/c1cc([N+](=O)[O-])ccc1N1CCOCC1	-8.36
CC1(C)C([N+](=O)[O-])C(c2ccc(F)cc2)NC(c2ccc(F)cc2)C1[N+](=O)[O-] (stereo not drawn)	14.4
O=C(NC(=S)NCCN1CCOCC1)c1ccccc1Br	16.7
Cc1cc(=O)oc2c3c(cc(OCC(=O)NCc4ccncc4)c12)OC(C)(C)CC3	3.27
Cc1occc1C(=O)Nc1cccc(C(F)(F)F)c1	-0.447
CN(C)c1ccc(NC(=O)CSCc2nc3c(nnn3Cc3ccc(F)cc3)c(=O)[nH]2)cc1	-2.58
Cc1cccc(NC(=O)c2nc[nH]c2C(=O)N[C@H](C)c2ccccc2)c1	19.7
COc1ccc(OC)c(C(=O)N2CCC(C(=O)c3ccc(F)cc3)CC2)c1	8.14
Cc1c(C(=O)N2CCC(C(N)=O)CC2)oc2ccc(Br)cc12	10
CCn1cc(C(=O)NCc2ccco2)c2cc(OC)c(OC)cc2c1=O	-8.54
COc1ccc(C2=NOC(C(=O)NCc3cccs3)C2)cc1OC (stereo not drawn)	17.6
O=C(O)CC1S/C(=N/N=C2CCCCC2)N(c2ccccc2)C1=O (stereo not drawn)	13
Cc1ccc(CNC(=O)C2CCN(S(=O)(=O)c3ccc4c(c3)CC(C)N4C(=O)C3CC3)CC2)cc1 (stereo not drawn)	-0.584
CN1CCC(=NNC(=O)c2cn(-c3ccccc3)nc2-c2ccccc2)CC1	10.9
CCOC(=O)CSc1nc2ccc(C)cc2cc1C#N	-1.42
CC(C)CC(NC(=O)c1cccs1)c1nnc(SCc2ccc(Cl)c(Cl)c2)n1C (stereo not drawn)	11.9
Cc1sc2ncn(CC(=O)N3CCN(c4ccccc4)CC3)c(=O)c2c1S(=O)(=O)N1CCOCC1	11.4
Cc1cnc(NC(=O)CSc2ccc(Cl)cc2)s1	5.22
COc1ccc(CC(=O)Nc2nc(C)cs2)cc1S(=O)(=O)N1CCOCC1	6.98
Cc1ccc(/C=N/NC(=O)c2cc3c(s2)CCCC3)o1	9.87
COc1ccc(-n2c(CNC(=O)COc3ccccc3)n[nH]c2=S)cc1	15.2
O=C1Nc2ccccc2Nc2ccc([N+](=O)[O-])cc21	0.957

SMILES	hERG current change (%, negative = inhibition) at 1uM [%]
COC(=O)CSc1nc(N)nc(C)c1Br	7.96
COC(=O)/C(=C/Nc1ccc(O)cc1)[N+](=O)[O-]	12.9
CC(C)CCNC(=O)C(c1cccs1)N(CC1CCCO1)C(=O)Cn1nnc2ccccc21 (stereo not drawn)	10.4
Cc1ccc(N2CC(C(=O)NCc3nnnn3-c3ccc(C)c(C)c3)CC2=O)cc1 (stereo not drawn)	11.5
O=C(O)c1cccc2c1C(=O)c1ccccc1-2	12.6
CCCCC1=NN(C(=O)c2cocc2C)C(O)(C(F)(F)F)C1 (stereo not drawn)	10.1
Cc1[nH]c(=O)[nH]c(=O)c1S(=O)(=O)N1CCCC1	8.99
Cc1cccc(-c2noc(CCC(=O)NC3CCCC3)n2)c1	12.1
O=C(CN1C(=O)C2C3C=CC(C3)C2C1=O)Nc1ccc2c(c1)OCCO2 (stereo not drawn)	-1.33
CN(c1ccccc1C(=O)NCc1ccccc1Cl)S(=O)(=O)c1ccccc1	10.9
O=C(NNC(=S)Nc1ccc(Cl)c(Cl)c1)c1cccc([N+](=O)[O-])c1	16.3
CCN(CC)CCOC(=O)c1ccc(NC(=O)CNC(=O)C2CCCCC2)cc1.Cl	1.83
COc1cccc(-c2nnc(SCC3CNC(=O)O3)n2-c2ccc(Cl)cc2)c1 (stereo not drawn)	15.8
CCC(C)NC(=O)Cn1cnc2sc(C)c(S(=O)(=O)N3CCCCC3)c2c1=O (stereo not drawn)	9.83
Cc1cccc(NC(=S)NCC(c2cccnc2)N(C)C)c1C (stereo not drawn)	10.1
CSc1ccc(Cl)c(C(=O)NCCOc2cc(C)ccc2C(C)C)c1	12.9
Nn1cnnc1SCC(=O)Nc1ccc(C2CCCCC2)cc1	7.57
CCOC(=O)c1ccc2c(c1)nc(SCC(=O)c1ccco1)n2CC	11.9
Cc1cc(-c2onc(C)c2C(=O)Nc2ccc(C(F)(F)F)cc2)no1	9.78
O=C(NCC1(c2ccccc2)CCOCC1)c1ccc(Br)o1	5.21
C1CC2OC2CC1C1CO1 (stereo not drawn)	14.8
Cc1ccccc1-n1c(SCc2cccc(F)c2)nc2[nH]ncc2c1=O	6.09

SMILES	hERG current change (%, negative = inhibition) at 1uM [%]
Nc1ccn(CC(=O)NCc2ccc3[nH]ccc3c2)c(=O)n1	22
O=C(Oc1c(-c2ccccc2)c(=O)n2c3c(cccc13)CC2)c1ccco1	1.13
COc1ccc(/C=C(\NC(=O)c2ccco2)C(=O)N2CCCCC2)cc1	16.5
CCC(=NCCCO)c1c(O)n(-c2ccc(OC)cc2)c(=O)[nH]c1=O	13.3
Cc1[nH]c(=O)[nH]c(=O)c1/C=N/NC(=O)[C@H](CC(C)C)NC(=O)OC(C)(C)C	10.2
CC(OC(=O)c1ccc([N+](=O)[O-])s1)C(=O)NC1CCCCC1C (stereo not drawn)	6.37
CCOC(=O)N1CC=C2C(C#N)=C(N)C(C#N)(C#N)[C@H](c3cccs3)C2C1 (stereo partly drawn)	3.54
Cc1[nH]c2ccccc2c1C(c1ccncc1)N1CCN(c2ccccn2)CC1 (stereo not drawn)	13.4
N#CCC(=O)Nc1ccc(C(=O)OCC(=O)Nc2ccccc2Sc2ccccc2)cc1	8.9
COCC(=O)Nc1nc2n(n1)C(c1ccc(Cl)cc1)CC(c1ccc(OC)cc1)N2 (stereo not drawn)	-31.1
COc1cc(/C=C/C(=O)OCC(=O)Nc2ccc([N+](=O)[O-])cc2)ccc1O	11.8
Cc1ccc(Cc2nnc(SCC(=O)Nc3c(C)cccc3C)[nH]c2=O)cc1	-4.17
Cc1ccccc1OCCn1cc(/C=C(\C#N)C(=O)NCc2ccco2)c2ccccc21	9.85
COCCN(C(=S)Nc1ccccc1OC)C1CCN(C(C)=O)CC1	17.2
COc1cccc(/C=N/NC(=O)c2nnn(-c3nonc3N)c2C(C)C)c1	15.9
C/C(CC(C)(C)c1ccccc1)=N\NS(=O)(=O)c1ccccc1	15.6
CCC(C)(C)NC(=O)C(c1ccccc1Cl)N(C(=O)CCC(=O)Nc1cc(C)on1)C(C)(C)C (stereo not drawn)	7.16
CCc1ccccc1N(CC)C(=O)c1cn(CC)c(=O)c2cc(OC)c(OC)cc12	9.82
CCc1ccccc1NC(=S)N(CCN1CCOCC1)C1CCN(C(C)=O)CC1	17.6
CCOc1ccc(-c2noc(=O)[nH]2)cc1	-4.45
Cc1noc(C)c1COc1ccc(C(=O)NNC(=O)c2ccccc2F)cc1	7.24
